{"source": "PubChem BioAssay AID1347073", "about": "(National Center for Advancing Translational Sciences (NCATS), 2019)", "note": "About 200 (0.44%) of roughly 45,000 compounds were called active. Inconclusive results (about 7%) are left out. Calls come from the whole dose curve; as a rule, active = well fitted activation curve with a large enough effect; inconclusive = small, poorly fitted or top-dose-only effect; inactive = no such curve, though single readings can be large or run the other way. The list shows a part of the results. Potency is the fitted concentration of half-maximal effect.", "data": [{"experiment": "qHTS of TDP-43 Inhibitors: NCGC Sytravon Library Screen; note: nearly all actives have a fitted effect of over 55% in size; for growth rescue (activation): 0% is about no effect", "details": "yeast TDP-43 toxicity rescue, BacTiter-Glo growth, 24 h; series mostly up to 46.1 µM; growth rescue (activation): at the top concentration", "in_short": "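TDP-43-expressing yeast, pregrown in raffinose, seeded at OD600 0.02 in galactose medium with compound for 24 hr at 30 deg C. Growth read by BacTiter-Glo luminescence, so rescue of toxicity appears as activation.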", "values": [{"compound": "CC(=O)c1cccc(NC(=O)COC(=O)c2cccc(N3C(=O)c4ccccc4C3=O)c2)c1", "growth rescue (activation)": "inactive: 1.38%"}, {"compound": "COc1ccc(CC(N)c2csc(Nc3cnccn3)n2)cc1", "note": "(centres undefined)", "growth rescue (activation)": "inactive: -0.619%"}, {"compound": "CC1(C(=O)NS(=O)(=O)Cc2ccccc2)CCN1C(=O)Cc1ccccc1", "note": "(centres undefined)", "growth rescue (activation)": "inactive: 13.6%"}, {"compound": "COc1ccc(CNC(=O)COC(=O)CC2CC3CCC2C3)cc1OC", "note": "(centres undefined)", "growth rescue (activation)": "inactive: -3.27%"}, {"compound": "CCOC(=O)c1c(-c2ccccc2)csc1NC(=O)/C(C#N)=C\\c1ccc(O)c(OC)c1", "growth rescue (activation)": "inactive: 21.1%"}, {"compound": "Cc1cc(C(=O)NNC(=O)COc2ccccc2Cl)n[nH]1", "growth rescue (activation)": "inactive: 3.8%"}, {"compound": "Cc1ccsc1/C=N/N1CCN(c2ccccn2)CC1", "growth rescue (activation)": "inactive: 3.93%"}, {"compound": "COc1cc(/C=N/NS(=O)(=O)c2ccc(C)cc2)ccc1OCc1cccc(C(=O)O)c1", "growth rescue (activation)": "inactive: 7.13%"}, {"compound": "CCCNC(=O)C1(C)CCCN(C/C=C/c2ccccc2)C1", "note": "(centres undefined)", "growth rescue (activation)": "inactive: -1.13%"}, {"compound": "O=C(COC(=O)c1ccccc1)Nc1ncc([N+](=O)[O-])s1", "growth rescue (activation)": "inactive: 2.63%"}, {"compound": "Cc1cc(C)c(NC(=O)CN2C(=O)NC(Cc3ccccc3)C2=O)c(C)c1", "note": "(centres undefined)", "growth rescue (activation)": "inactive: 0.277%"}, {"compound": "C/C(N)=C(/C#N)C(=O)CSc1nc2ccccc2c(=O)n1Cc1ccc(C)cc1", "growth rescue (activation)": "inactive: 11.5%"}, {"compound": "CCOc1ccc(Oc2c(/C=N/NC(=O)C3CC3)c(C)nn2-c2ccccc2)cc1", "growth rescue (activation)": "inactive: 17.4%"}, {"compound": "CCCCN1CCCCC1(C)C(=O)NCc1cccs1", "note": "(centres undefined)", "growth rescue (activation)": "inactive: 7.64%"}, {"compound": "Cc1cccc(NC(=O)CSc2cn[nH]n2)c1", "growth rescue (activation)": "inactive: 9.33%"}, {"compound": "O=C(c1cccs1)c1cn(CCOc2ccc(Cl)cc2)c2ccccc12", "growth rescue (activation)": "inactive: -4.83%"}, {"compound": "COc1cc(NC(=S)NCc2ccco2)c(OC)cc1Cl", "growth rescue (activation)": "inactive: 6.87%"}, {"compound": "O=C(C1CCN(Cc2ccc(F)cc2)CC1)N1CCN(C/C=C/c2ccccc2)CC1", "growth rescue (activation)": "inactive: -20.8%"}, {"compound": "O=C(CN1C(=O)NC2(CCCc3ccccc32)C1=O)c1ccc(F)c(F)c1", "note": "(centres undefined)", "growth rescue (activation)": "inactive: 31.3%"}, {"compound": "O=C(CN(Cc1ccco1)C(=O)CNS(=O)(=O)c1ccc(F)cc1)NCc1ccccc1", "growth rescue (activation)": "inactive: -4.39%"}, {"compound": "COc1ccc(/C(C)=N\\NC(=O)CSc2nnc(C)s2)cc1", "growth rescue (activation)": "inactive: -5.96%"}, {"compound": "Cc1ccc(NC(=O)c2ccccc2[N+](=O)[O-])nc1", "growth rescue (activation)": "inactive: 16.2%"}, {"compound": "Cc1ccc(CNC(=O)c2ccccc2SCC(=O)NCC2CCCCC2)cc1", "growth rescue (activation)": "inactive: 9.99%"}, {"compound": "Cc1noc(C)c1COc1ccc(C(=O)OC(C)C(=O)Nc2ccc(S(=O)(=O)N3CCOCC3)cc2)cc1", "note": "(centres undefined)", "growth rescue (activation)": "inactive: 24.9%"}, {"compound": "Cc1ccc(C)n1-c1ccc(-c2nnc3n2CCCCC3)s1", "growth rescue (activation)": "inactive: -3.42%"}, {"compound": "COc1cccc2cc(-c3csc(NC(=O)CCC(=O)NCCCN4CCC(C)CC4)n3)c(=O)oc12", "growth rescue (activation)": "inactive: 4.93%"}, {"compound": "CCOCCCNC(=O)C1CC(=O)N(CCc2ccc(C)cc2)C1", "note": "(centres undefined)", "growth rescue (activation)": "inactive: -0.172%"}, {"compound": "CCOc1ccccc1NC(=S)N(CCN(C)C)C(C)c1ccncc1", "note": "(centres undefined)", "growth rescue (activation)": "inactive: 1.67%"}, {"compound": "COC(C(=O)Nc1cc([N+](=O)[O-])ccc1C)c1ccccc1", "note": "(centres undefined)", "growth rescue (activation)": "inactive: 4.99%"}, {"compound": "O=C(O)c1cc(S(=O)(=O)NCCOc2ccccc2)ccc1Cl", "growth rescue (activation)": "inactive: 24.7%"}, {"compound": "CCCn1cc2c(c1-c1ccc(C)cc1)c(=O)n(C)c(=O)n2C", "growth rescue (activation)": "inactive: -2.32%"}, {"compound": "Cc1ccc(CNc2nc3ccc(Cl)cc3n3cnnc23)cc1", "growth rescue (activation)": "inactive: 14.9%"}, {"compound": "COc1ccc(C(=O)C2CCCN(Cc3cn[nH]c3-c3ccccc3)C2)cc1OC", "note": "(centres undefined)", "growth rescue (activation)": "inactive: 13.5%"}, {"compound": "CC(C)C(=O)Nc1cc(S(=O)(=O)N2CCOCC2)ccc1N1CCCCC1", "growth rescue (activation)": "inactive: 16.8%"}, {"compound": "Cc1onc(NC(=O)c2ccc(Cl)cc2Cl)c1Br", "growth rescue (activation)": "inactive: 13.6%"}, {"compound": "COc1ccc(NC(=O)C2(C)CCN2C(=O)Cc2ccccc2)cc1OC", "note": "(centres undefined)", "growth rescue (activation)": "inactive: 10.8%"}, {"compound": "NS(=O)(=O)c1ccc(CCNc2nn3c(-c4ccc(F)c(Cl)c4)cnc3s2)cc1", "growth rescue (activation)": "inactive: 9.13%"}, {"compound": "CC1(C(=O)NS(=O)(=O)c2cccc(C#N)c2)CCN1C(=O)CCc1ccccc1", "note": "(centres undefined)", "growth rescue (activation)": "inactive: 9.07%"}, {"compound": "COc1cccc(OCC(=O)Nc2ccccc2NC(C)=O)c1", "growth rescue (activation)": "inactive: 9.65%"}, {"compound": "COc1cc(C)c(C)cc1S(=O)(=O)n1c(C)nc2ccccc21", "growth rescue (activation)": "inactive: 2.62%"}, {"compound": "O=C(Nc1ccc2c(c1)OCCO2)Nc1ccc2c(c1)OCO2", "growth rescue (activation)": "inactive: 9.09%"}, {"compound": "COCCN1Cc2cc3cc(C)ccc3nc2SC1=Nc1ccc(OC)cc1", "growth rescue (activation)": "inactive: 7.54%"}, {"compound": "CN(C)N=Nc1ccc(S(=O)(=O)NC(Cc2ccccc2)C(=O)O)cc1", "note": "(centres undefined)", "growth rescue (activation)": "inactive: -6.57%"}, {"compound": "O=C1c2ccccc2S(=O)(=O)N1CC(O)Cn1c2ccccc2c2ccccc21", "note": "(centres undefined)", "Potency": "active: 12.6 µM"}, {"compound": "CCOc1ccccc1N1CCN(C(=S)NC(=O)C23CC4CC(CC(C4)C2)C3)CC1", "growth rescue (activation)": "inactive: 17.9%"}, {"compound": "COC(=O)c1sc2nc(CN3CCN(c4ccc(OC)cc4)CC3)[nH]c(=O)c2c1C", "growth rescue (activation)": "inactive: 10.8%"}, {"compound": "COc1ccc(CNC(=O)C(C)OC(=O)c2cccs2)cc1", "note": "(centres undefined)", "growth rescue (activation)": "inactive: 17.8%"}, {"compound": "CCn1c(NCc2ccc(OC)c(OC)c2)nc2ccccc21", "growth rescue (activation)": "inactive: -0.665%"}, {"compound": "COc1ccc(CCNC(=S)NCCc2c[nH]c3ccccc23)cc1", "growth rescue (activation)": "inactive: -12%"}, {"compound": "CN(Cc1ccccc1NCC(=O)Nc1ccccc1C#N)C1CCCCC1", "growth rescue (activation)": "inactive: 12.2%"}, {"compound": "N/C(=N\\N=C\\c1ccc([N+](=O)[O-])cc1)c1nonc1N", "growth rescue (activation)": "inactive: 10%"}, {"compound": "O=C(C1CCN(S(=O)(=O)N2CCOCC2)CC1)N1CCN(c2ccc(F)cc2)CC1", "growth rescue (activation)": "inactive: 2.13%"}, {"compound": "CC1CCCCC12NC(=O)N(CC(=O)NC1CCCc3ccccc31)C2=O", "note": "(centres undefined)", "growth rescue (activation)": "inactive: -12.9%"}, {"compound": "COC(=O)C1=C(N)Oc2cc(C)[nH]c(=O)c2C1c1ccccc1OC", "note": "(centres undefined)", "growth rescue (activation)": "inactive: -18.4%"}]}]}
